# The source gives no read counts; variants with many changes may rest on few reads.
# B1: CPEB3 Ribozyme (parent)
# chain: UAACAGGGGGCCACAGCAGAAGCGUUCACGUCGCAGCCCCUGUCAGAUUCUGGUGAAUCUGCGAAUUCUGCUGUAUAUCUC
# Variants of: B1
# Assay: self-cleavage, relative activity (ratio to wild type); higher = more cleavage; in vitro, sequencing
# Method in brief: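 CPEB3 self-cleaving ribozyme mutant libraries were made by rounds of error-prone PCR, barcoded, and transcribed in vitro with T7 RNA polymerase for 5 hours at 37°C. Cleavage occurred during transcription and a 15 min DNase I step before EDTA stop. RNAs were reverse transcribed with template switching and Illumina-sequenced, with DNA sequencing mapping barcodes to variants. Relative activity is the variant's cleaved/total read fraction divided by wild type's (minimum 5 reads), averaged across three batches.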
row,Variant,self-cleavage
1,UAACAGGGGGCCACGGCAGAGGCUCUCACGUCGCAGCCCCUGUCAGAUUCUGGUGAAUGUGCGAGUUCUGCUGUAUAUCUC [A15G A21G G24U U25C C59G A65G],0.05
2,UAACAGGGGGCCACGGCAGAGGCGUUCACAUCGCGGCCCCUGUCAGACUCUGGUGAAUCUGCGAAUUCUGCUGUACACCUC [A15G A21G G30A A35G U48C U76C U78C],0.06
3,UAACAGGGGGCCACGGCAGAGGCGUUCACAUCGCAGCCCCUGUCAGAUUCUGGUGUAUCUGCGAAUUCUGCUGUAUACCUC [A15G A21G G30A A56U U78C],0.07
4,UAACAGGGGGCCACGGCAGAGGCGUUCACGUCGCAGCCCCUGUCAGAUUCUAGUGAAUCUGCGAAUUCUGCUGUAUAUCUC [A15G A21G G52A],0.66
5,UAACAGGGGGCCACGGCAGAGGCGUUCACGUCGCAGCCCCUGUCAGAUUCUGGUGAAUCUGCCAAUUCUGCAGUAUAUCCC [A15G A21G G63C U72A U80C],0.49
6,UAACAGGGGGCCACGGCAGAGGCGAUCACGUCGCAGCUCCUGUCAGAUUCUGGUGGAUCUGCGAAUUCUGCUGUAUAUCUC [A15G A21G U25A C38U A56G],0.13
7,UAACAGGGGGCCACGGCAGAGGCGAUCACGUCGCAGCCCCUGUCAGAUUCGGGUGAAUCUGCGAGUCCUGCUGUAUGUCUC [A15G A21G U25A U51G A65G U67C A77G],0.19
8,UAACAGGGGGCCACGGCAGAGGCGCUCACGUCGCAGCGCCUGUCAGAUUCUGGUGAAUCUGCGAAUUCUGCUGUAUACCUC [A15G A21G U25C C38G U78C],0.06
9,UAACAGGGGGCCACGGCAGAGGCGCUCACGUCGCAGCCCCUGUCAGAUUCUGGUGAAUCUGCGAAUCCUGCUGUAUACCUC [A15G A21G U25C U67C U78C],0.32
10,UAACAGGGGGCCACGGCAGAGGCGUACGCGUCGCAGCCCCUGCCAGAUUCUGGUGAAUCUGCGAGUUCUGCUGUAUAUCUC [A15G A21G U26A A28G U43C A65G],0
11,UAACAGGGGGCCACGGCAGAGGCGUACACGUCGCAGCCCCUGUCAGACUCUGGUGAAUCUGCUAAUUCUGCUGUAUAUCUC [A15G A21G U26A U48C G63U],0.48
12,UAACAGGGGGCCACGGCAGAGGCGUCCACGUCGCAGCCCCUGUCAGAUUCUGGUGAAUCUGCGAGUUCUGCUGUAUAUCUC [A15G A21G U26C A65G],0.07
13,UAACAGGGGGCCACGGCAGAGGCGUCCACGUUGCAGCCCCUGUCAGAUUCUGGUGAAUCUGCGAAUCCUGCUGUAUAUCUC [A15G A21G U26C C32U U67C],0.05
14,UAACAGGGGGCCACGGCAGAGGCGUCCACGUCGCAGCCCCUGUAAGAUUCUGGUGAAUCUGCGAAUUCUGCUGUAUAUCUC [A15G A21G U26C C44A],0.04
15,UAACAGGGGGCCACGGCAGAGGCGUCCACGUCGCAGCCCCUGUCAGAUUCUGAUGAGUCUGCGAAUUCUGCUGUAUAUCUC [A15G A21G U26C G53A A57G],0.28
16,UAACAGGGGGCCACGGCAGAGGCGUUCACGACGCAGCGCCUGUCAGAUUCUGGUGAACCUGCGAAUUCUGCUGUAUAUCUC [A15G A21G U31A C38G U58C],0.13
17,UAACAGGGGGCCACGGCAGAGGCGUUCACGACGCAGCCCCGGCCCGAUUCUGGUGAAUCUGCGAAUUCUGCUGUAUAUCCC [A15G A21G U31A U41G U43C A45C U80C],0

row,Variant,self-cleavage
1,UAACAGGGGGCCACGGCAGAGGCGUUCACGCCGCAGCCCCUGUCAGAUUCUGGUGAAUCUGCGAAUUCUGCCGUAUAUCUC [A15G A21G U31C U72C],0.48
2,UAACAGGGGGCCACGGCAGAGGCGUUCACGUCGCAGCCCCAGUCAGAUUCUGGUGAAUCUGCGAAUUCUGCGGUAUAUCUC [A15G A21G U41A U72G],0.18
3,UAACAGGGGGCCACGGCAGAGGCGUUCACGUCGCAGCCCCUGACAGAUUCUGGUGAAUCUGCGAAUUCUGCAGUAUAUCUC [A15G A21G U43A U72A],0.2
4,UAACAGGGGGCCACGGCAGAGGCGUUCACGUCGCAGCCCCUGUCAGACUCUGGUGAGUCUGCGAAUUCUGCUGUAAAUCUC [A15G A21G U48C A57G U76A],0.7
5,UAACAGGGGGCCACGGCAGAGGCGUUCACGUCGCAGCCCCUGUCAGACUCUGGUAAAUCUGCGAAUUCUGCUGUAUAUCUC [A15G A21G U48C G55A],0.32
6,UAACAGGGGGCCACGGCAGAGGCGUUCACGUCGCAGCCCCUGUCAGACUCUGGUGAACCUGCGAAUUCUGCUGUAUAUCUC [A15G A21G U48C U58C],0.07
7,UAACAGGGGGCCACGGCAGAGGCGUUCACGUCGCAGCCCCUGUCAGAUCCUGGUGAAUCUGCGAAUUCUGCUGUAUACCAC [A15G A21G U49C U78C U80A],0.17
8,UAACAGGGGGCCACGGCAGAGGCGUUCACGUCGCAGCCCCUGUCAGAUUCUGGUGAAUCCGCGAAUUCUGCUGUAUAUCUC [A15G A21G U60C],0.11
9,UAACAGGGGGCCACGGCAGAGGCGUUCACGUCGCAGCCCCUGUCAGAUUCUGGUGAAUCUGCGAAUUCAGCUGUAUAUCUC [A15G A21G U69A],0.17
10,UAACAGGGGGCCACGGCAGAGGCGUUCACGUCGCAGCCCCUGUCAGAUUCUGGUGAAUCUGCGAAUUCCGCUGUAUAUCUC [A15G A21G U69C],0.2
11,UAACAGGGGGCCACGGCAGAGGCGUUCACGUCGCAGCCCCUGUCAGAUUCUGGUGAAUCUGCGAAUUCUGCAGUAUAUCUC [A15G A21G U72A],0.2
12,UAACAGGGGGCCACGGCAGAGGCGUUCACGUCGCAGCCCCUGUCAGAUUCUGGUGAAUCUGCGAAUUCUGCCGUAUAUCUC [A15G A21G U72C],0.59
13,UAACAGGGGGCCACGGCAGAGGCGUUCACGUCGCAGCCCCUGUCAGAUUCUGGUGAAUCUGCGAAUUCUGCUGUAUACCUC [A15G A21G U78C],0.57
14,UAACAGGGGGCCACGGCAGAGGCGUUCACGUCGCAGCCCCUGUCAGAUUCUGGUGAAUCUGCGAAUUCUGCUGUAUAUCCC [A15G A21G U80C],0.69
15,UAACAGGGGGCCACGGCAGAUGCGUUCGCGUCGCGGCCCCUGUCAGAUUCAGGUGAAUCUGCGAAUUCUGCUGUAUAUCUC [A15G A21U A28G A35G U51A],0.33
16,UAACAGGGGGCCACGGCAGAUGCGUUCUCGUCGCAGCCCCUGUCAGAUUCUGGUGAAUCUGCGAAUUCUGCUGUAUAACUC [A15G A21U A28U U78A],0.11
17,UAACAGGGGGCCACGGCAGAUGCGUUCACGUCGCGGCCCCAGUCAGAUUCUGGUGAAACUGCGAAUCCUGCUGUAUAUCUC [A15G A21U A35G U41A U58A U67C],0.06
